About 3,600 (1.6%) of roughly 230,000 compounds were called active. The inconclusive results got no clear call from the source; some entries with a clear call stand among them for comparison. Calls follow the shape of the dose curve; as a rule, active = well fitted inhibition curve with a large enough effect (not every such curve was filed as active); inconclusive = small, poorly fitted or top-dose-only effect, or another doubt; inactive = no such curve, though single readings can be large or run the other way. Potencies of inconclusive entries are doubtful fits and often do not repeat.
Target: Lysine-specific demethylase 4E (Homo sapiens) (UniProt B2RXH2)
Assay: qHTS Assay for Inhibitors of Human Jumonji Domain Containing 2E (JMJD2E)
Conditions: JMJD2E catalytic domain, FDH-coupled NADH fluorescence (FDH is formaldehyde dehydrogenase); series mostly up to 57.1 µM
Also: nearly all actives have a fitted effect of over 50% in size.
Potency is read from the fitted curve at half-maximal effect; tags tell the direction and shape of the fitted curve.

Sequence of UniProt B2RXH2 (B2RXH2 whole entry, looked up, the tested form may be a part): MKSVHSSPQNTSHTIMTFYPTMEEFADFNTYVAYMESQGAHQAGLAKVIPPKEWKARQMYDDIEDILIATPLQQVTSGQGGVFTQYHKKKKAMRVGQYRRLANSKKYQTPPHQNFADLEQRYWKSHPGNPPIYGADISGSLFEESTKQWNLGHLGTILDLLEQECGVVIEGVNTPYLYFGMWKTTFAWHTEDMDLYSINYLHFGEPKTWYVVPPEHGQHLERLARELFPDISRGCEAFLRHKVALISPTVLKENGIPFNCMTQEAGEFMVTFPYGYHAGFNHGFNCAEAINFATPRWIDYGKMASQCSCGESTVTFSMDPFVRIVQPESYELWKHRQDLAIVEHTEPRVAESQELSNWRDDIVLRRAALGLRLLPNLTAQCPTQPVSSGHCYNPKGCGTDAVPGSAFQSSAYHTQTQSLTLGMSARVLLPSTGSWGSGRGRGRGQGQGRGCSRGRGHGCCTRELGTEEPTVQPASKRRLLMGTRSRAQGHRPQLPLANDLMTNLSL

SMILES | Potency
COC(=O)CSc1nc(N2CCCCC2)c2c(c1C#N)CCCC2 | inconclusive: 35.5 µM [inhibitor, single point]
CC(C)CCNC(=O)COc1ccc2c(c1)C(=O)CC(C)(C)O2 | inconclusive: 31.6 µM [inhibitor, partial curve]
O=c1c2c3nc4ccccc4nc3n(/N=C/c3cccs3)c2ncn1-c1ccccc1 | inactive
CCc1ccc(NS(=O)(=O)c2ccc3[nH]cc(C(=O)N4CCc5ccccc54)c(=O)c3c2)cc1 | inconclusive: 15.8 µM [inhibitor, partial curve]
Cc1csc2ncc(C(=O)NCc3ccco3)c(=O)n12 | inconclusive: 22.4 µM [inhibitor, partial curve]
Cc1ccc(NNC(=O)c2c(F)cccc2Cl)cc1Cl | inactive
Cc1ccc2nc(N3CCN(C(=O)c4cccs4)CC3)c(C#N)cc2c1 | inconclusive: 25.1 µM [inhibitor, partial curve]
COc1ccc(OC)c(/C=N/NC(=O)CSc2cc(C)nc3c(OC)cccc23)c1 | inconclusive: 28.2 µM [inhibitor, partial curve]
C(=N\Nc1ccc2ccccc2n1)/c1ccc2c(c1)OCCO2 | inconclusive: 28.2 µM [inhibitor, partial curve]
CCn1c(SCC(=O)NCc2ccco2)nnc1C(C)C | inconclusive: 39.8 µM [inhibitor, single point]
O=C(OCc1nnc(-c2ccccc2)o1)c1cn(-c2ccccc2)nc1-c1ccccc1 | inactive
Cc1ccc(CN2CCN(c3ccccn3)CC2)s1 | inconclusive: 35.5 µM [inhibitor, single point]
O=C(CCN1CCN(c2ccc(F)cc2)CC1)Nc1ccc(F)cc1 | inactive
CCOC(=O)c1c(-c2ccccc2)csc1NC(=O)C1CCCO1 (centres undefined) | inconclusive: 31.6 µM [inhibitor, single point]
O=C(/C=C/Nc1cccc(C(F)(F)F)c1)c1ccco1 | inconclusive: 28.2 µM [inhibitor, partial curve]
CC(C)Oc1cccc(C(=O)C2CCCN(S(C)(=O)=O)C2)c1 (centres undefined) | inconclusive: 3.98 µM [inhibitor, single point]
N#CC(c1ccc(=O)[nH]n1)c1ccc(Cl)cc1Cl (centres undefined) | inactive
Cc1ccc(C(=O)CCNc2ccc(Br)cc2)o1 | inactive
Cc1ccc(CNC(=O)CCNC(=O)Cn2ccc3ccccc3c2=O)o1 | inconclusive: 39.8 µM [inhibitor, single point]
Cn1c(-c2ccco2)nc2cc3ccccc3cc21 | inconclusive: 31.6 µM [inhibitor, partial curve]
CC(=O)NS(=O)(=O)c1ccc(NC(=O)c2cc(-c3ccc(C)c(C)c3)nc3ccccc23)cc1 | inconclusive: 35.5 µM [inhibitor, single point]
COc1ccc(-c2nc(CSCC(=O)NCCC3=CCCCC3)c(C)o2)cc1OC | inconclusive: 39.8 µM [inhibitor, single point]
N=C(N)c1ccc(/C=C/c2ccc(C(=N)N)cc2O)cc1 | active: 28.2 µM

SMILES | Potency
CC(=O)C1=C(C)NC(SCSc2ccccc2)=C(C#N)C1c1cccnc1 (centres undefined) | inconclusive: 35.5 µM [inhibitor, single point]
COc1ccc2oc(=O)c(-c3nnc(NCc4ccco4)s3)cc2c1 | inactive
N#CCSc1nnc(Nc2ccccc2)s1 | inactive
COc1ccc(C2NC(=O)NC3=C2CCc2ccccc23)cc1 (centres undefined) | inconclusive: 14.1 µM [inhibitor, partial curve]
Cc1cc(C)n2cc(CSc3nnc(SCc4cn5c(C)cc(C)nc5n4)s3)nc2n1 | inconclusive: 28.2 µM [inhibitor, single point]
C/C(CC(=O)Nc1cccnc1)=N\NC(=O)C(=O)Nc1cccc(C)c1 | inactive
Cc1cccc(C)c1Nc1c(-c2ccc(N3CCOCC3)cc2)nc2ncccn12 | inactive
Cc1cccc(NC(=O)c2nc[nH]c2C(=O)N[C@@H](CC(C)C)C(=O)OC(C)(C)C)c1 | inconclusive: 39.8 µM [inhibitor, single point]
CN(CCO)c1ncnc2c1sc1nc(N3CCOCC3)c3c(c12)CCC3 | inconclusive: 3.55 µM [inhibitor, full curve, poor fit]
Nc1c2c(=O)oc(-c3ccccc3)cc2nn1-c1ccccc1 | inconclusive: 28.2 µM [inhibitor, partial curve]
CSc1nnc(-c2cccn(Cc3ccccc3)c2=O)o1 | inconclusive: 10 µM [inhibitor, partial curve]
COc1ccc(CC(=O)OCC(=O)NC(=O)NC2CCCCC2)cc1 | inactive
CC1(C)OC2CC3C4CC(F)C5=CC(=O)C=CC5(C)C4C(O)CC3(C)[C@]2(C(=O)CO)O1 (some centres undefined) | inconclusive: 39.8 µM [inhibitor, single point]
COc1ccc(S(=O)(=O)/N=C2/NC(=O)/C(=C/c3ccco3)S2)cc1 | inconclusive: 39.8 µM [inhibitor, single point]
c1ccc(C2=Nc3ccccc3SC2c2nc3ccccc3[nH]2)cc1 (centres undefined) | inconclusive: 35.5 µM [inhibitor, single point]
Cc1occc1C(=O)N/N=C/c1ccccc1[N+](=O)[O-] | inactive
COc1cccc([C@@H]2Oc3ccc(OC)cc3C(=O)[C@H]2OC(=O)NS(=O)(=O)c2ccc(F)cc2)c1 | inconclusive: 25.1 µM [inhibitor, single point]
CCOc1ccc(-n2cc(-c3ccccc3)c3c(SC(C)C(=O)OC)ncnc32)cc1 (centres undefined) | inconclusive: 39.8 µM [inhibitor, single point]
Cc1ccccc1OCC(=O)Nc1ccc(NC(=O)c2ccco2)cc1 | inconclusive: 39.8 µM [inhibitor, single point]
O=C(Nc1ccsc1C(=O)NC1CCCCC1)c1ccccc1 | inconclusive: 35.5 µM [inhibitor, single point]
CNC(=S)N/N=C/c1ccc(N2CCOCC2)s1 | inconclusive: 31.6 µM [inhibitor, single point]
COC(=O)c1c[nH]n2c(=O)cc(C)nc12 | inconclusive: 22.4 µM [inhibitor, partial curve]
CCOC(=O)C(Sc1nn(C)c(=S)s1)C(C)=O (centres undefined) | inconclusive: 35.5 µM [inhibitor, single point]

SMILES | Potency
Cc1cc(C)c(C)c(S(=O)(=O)N2CCC(C(=O)OCC(=O)N3c4ccccc4NC(=O)C3(C)C)CC2)c1C | inactive
Cc1cc(C)nc(NS(=O)(=O)c2ccc(N/C=C/C(=O)c3ccc(Cl)cc3)cc2)n1 | active: 22.4 µM
COc1ccc(CN(C)CC(=O)Nc2cc3oc4ccccc4c3cc2OC)c(OC)c1 | inconclusive: 25.1 µM [inhibitor, partial curve]
CC1=CC=CC2=NC(=O)CC(C)(C(=O)N(CC(=O)NC(C)C)C3CCCC3)N12 (centres undefined) | inconclusive: 31.6 µM [inhibitor, partial curve]
C/C(CC(=O)Nc1cc(C)ccn1)=N\NC(=O)COc1cccc(C)c1 | inconclusive: 39.8 µM [inhibitor, single point]
COc1cc(/C=C/C(=O)O)cc2c1OCCO2 | inconclusive: 28.2 µM [inhibitor, partial curve]
CCNC(=S)N(CCc1cccc(C)c1)Cc1cc2cc(OC)c(OC)cc2[nH]c1=O | inconclusive: 31.6 µM [inhibitor, partial curve]
CCC1(CC)NC(=O)N(CC(=O)Nc2sc3c(c2C(N)=O)CCC3)C1=O | inconclusive: 35.5 µM [inhibitor, single point]
O=C(c1ccc2c3c(cccc13)CC2)C1CCCN(Cc2ccc(OCCO)cc2)C1 (centres undefined) | inconclusive: 31.6 µM [inhibitor, partial curve]
COc1cc(/C=C2\CCCc3c2nc2ccccc2c3C(=O)O)cc(OC)c1O | inconclusive: 39.8 µM [inhibitor, single point]
c1nc(NCCN2CCOCC2)c2cc(-c3ccc4c(c3)OCO4)ccc2n1 | inconclusive: 31.6 µM [inhibitor, partial curve]
CC(C)C[C@@H](CC(=O)N[C@@H](CCC(=O)O)CC(=O)O)NC(=O)[C@@H]1CNCC[C@H]1NC(=O)C[C@H](CCCN)NC(=O)C[C@H](Cc1c[nH]c2ccccc12)NC(=O)[C@@H]1CCCC[C@H]1N | inactive
O/N=C\c1ccccc1Oc1ccc(F)cc1 | inactive
O=C(NCc1ccco1)c1c(F)cccc1Cl | inactive
Cc1ccc(NC(=O)CCSc2nc(C)cc(C)n2)cc1 | inactive
CC1CN(CCOc2ccccc2-c2ccccc2)CC(C)O1 (centres undefined) | inconclusive: 35.5 µM [inhibitor, single point]
COc1ccc(-c2nc(O)c3cnccn23)cc1 | inconclusive: 39.8 µM [inhibitor, single point]
COc1cc(NC(=S)Nc2cccnc2)cc(OC)c1OC | inconclusive: 25.1 µM [inhibitor, partial curve]
Cc1cc(C)nc(N/N=C/c2cc(Br)ccc2O)n1 | inconclusive: 39.8 µM [inhibitor, single point]
COC(=O)c1ccc(NC2c3ncccc3C(=O)N2Cc2cccs2)cc1 (centres undefined) | inconclusive: 31.6 µM [inhibitor, single point]
O=C1c2ccccc2C(=O)N1Cc1nn2c(-c3ccc(Cl)cc3)nnc2s1 | inactive
O=C(C/C=N/OCc1ccc(Cl)cc1)c1cnc(-c2ccccc2)s1 | inconclusive: 31.6 µM [inhibitor, single point]
O=C(Nc1cccc2ccccc12)N1CCOCC1 | inconclusive: 22.4 µM [inhibitor, partial curve]

— PubChem BioAssay AID2147 (National Center for Advancing Translational Sciences (NCATS), 2009)
